Laboratory results published in PubChem BioAssay AID485294 (National Center for Advancing Translational Sciences (NCATS), 2010).
Hit rate of the full screen: of about 370,000 compounds, about 150 (0.041%) were called active. The shares of active, inactive and inconclusive entries below differ from those in the screen. The call rests on the fitted dose curve; in most records, active means well fitted inhibition curve with a large enough effect; inconclusive means small, poorly fitted or top-dose-only effect; inactive means flat fitted curve, though single readings scatter. Potencies of inconclusive entries are left out as doubtful fits.

biological target: Beta-lactamase (Escherichia coli (strain K12)) (UniProt P00811); experiment: qHTS Inhibitors of AmpC Beta-Lactamase (assay with detergent); conditions: AmpC hydrolysis of nitrocefin, absorbance 480 nm, 0.01% Triton; activity change, negative = inhibition: at 114 µM (top of the series); further: nearly all actives have a fitted effect of over 25% in size;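 on activity change, negative = inhibition: 0% = no-compound wells and -100% = no-enzyme wells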
Sequence of UniProt P00811 (P00811 whole entry, looked up): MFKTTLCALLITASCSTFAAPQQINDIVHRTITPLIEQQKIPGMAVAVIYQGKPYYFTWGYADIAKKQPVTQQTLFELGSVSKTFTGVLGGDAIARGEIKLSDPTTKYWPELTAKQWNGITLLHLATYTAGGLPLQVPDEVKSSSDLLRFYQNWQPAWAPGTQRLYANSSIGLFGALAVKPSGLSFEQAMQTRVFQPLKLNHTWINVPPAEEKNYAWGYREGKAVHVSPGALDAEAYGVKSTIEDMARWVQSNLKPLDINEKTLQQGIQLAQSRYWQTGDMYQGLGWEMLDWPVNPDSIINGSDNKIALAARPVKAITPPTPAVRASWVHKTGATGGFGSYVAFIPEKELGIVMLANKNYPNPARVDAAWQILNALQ
Procedure, shortened: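 AmpC (5.3 nM in the dispensed reagent) in 20 mM phosphate pH 7.0 with 0.01% (detergent screen) or 0.0001% Triton X-100 was preincubated with compounds for 15 min at room temperature. Nitrocefin was then added from an 800 uM solution, and hydrolysis was followed at 480 nm.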
Potency means the concentration at half of the fitted maximal effect; tags describe the fitted curve by direction and shape.

Compound	activity change, negative = inhibition	Potency
CCC(=O)N1CCc2cc(Br)cc(S(=O)(=O)CC(=O)OC)c21	inactive: 0.355%	
CC(OC(=O)c1cccc([N+](=O)[O-])c1)C(=O)N1CCc2ccccc21 (centres undefined)		inconclusive [inhibitor, partial curve, poor fit]
O=C(N/N=C/c1ccc(OCc2ccc(F)cc2)cc1)c1ccccc1	inactive: 1.62%	
Cc1cccc(NC(=O)C2CCN(S(=O)(=O)c3c(C)nn(C)c3C)CC2)n1		inconclusive [inhibitor, full curve, poor fit]
Cc1cccc(NC(=O)c2ccc(-c3nc(CSc4ccccc4)c(C)o3)cc2)c1C		inconclusive [inhibitor, single point]
COc1ccccc1CNC(=O)c1cnc2sc(N3CCCCCC3)nn2c1=O	inactive: -1.27%	
COc1cccc(CNC(=O)CN2C(=O)NC(Cc3ccccc3)(c3ccccc3)C2=O)c1 (centres undefined)		inconclusive [inhibitor, single point]
O=c1c2ccccc2n(Cc2ccccc2F)c(=O)n1-c1cccc(F)c1	inactive: 17.7%	
COc1ccc(Nc2nnc(SCC3CCCO3)s2)cc1 (centres undefined)	inactive: -2.62%	
Cc1ccc(C(=O)Nc2onc3c2CCCC3)cc1	inactive: -5.66%	
CC1(C)CC(OC(=O)c2ccco2)CC(C)(C)N1O		inconclusive [inhibitor, single point]
Cn1nc(C(=O)Nc2ccc(Cl)cc2)cc1C(=O)Nc1ccc(Cl)cc1		inconclusive [inhibitor, full curve, poor fit]
COc1cccc(CN(C)CC2CCCN(CCc3ccccc3C)C2)c1 (centres undefined)	inactive: -9.61%	
C=CCn1c(CCNC(=O)c2ccccc2F)nnc1SCC(=O)Nc1nc(C)cs1		inconclusive [inhibitor, partial curve]
C/C(CS(=O)(=O)c1ccccc1)=N\O	inactive: 1.61%	
COc1ccc(Cn2c(=O)oc3ccc(C)cc32)cc1OC	inactive: -0.981%	
COc1cc(/C=C(/NC(=O)c2ccc(Cl)cc2Cl)C(=O)O)cc(OC)c1OC		inconclusive [inhibitor, full curve, poor fit]
COc1cccc(NC(=O)Cc2nc(-c3ccccc3)sc2-c2ccc(C)cc2)c1		inconclusive [inhibitor, full curve, poor fit]
CSc1ccccc1C(=O)N1CCC2(CC1)CC(=O)c1ccccc1O2		inconclusive [inhibitor, full curve, poor fit]
O=C(c1ccccc1)N1CCN(C(=O)c2nn3c(C(F)(F)F)cc(-c4ccccc4)nc3c2Br)CC1		inconclusive [inhibitor, single point]
CC(C)N(CCC(=O)c1ccc2ccccc2c1)Cc1ccccc1		inconclusive [inhibitor, partial curve, poor fit]
CCOc1ccccc1C1C2=C(COC2=O)Nc2cc3c(cc21)OCO3 (centres undefined)	inactive: 10.2%	
CCOC(=O)N1CCC(NC(=O)CN2C(=O)C(CC)Oc3ccc(C)cc32)CC1 (centres undefined)		inconclusive [inhibitor, partial curve]

Compound	activity change, negative = inhibition	Potency
COc1ccc(C2c3[nH]c4ccccc4c3C[C@H]3C(=O)N(c4ccccc4C(=O)NCCN4CCOCC4)C(=O)N23)cc1 (some centres undefined)		inconclusive [inhibitor, partial curve]
COc1ccc(N2C(=O)c3ccccc3NC23CCC(C)CC3)cc1 (centres undefined)		inconclusive [inhibitor, partial curve, poor fit]
CC1CC(NC(=O)N(C)C)N(C)C(=O)N1 (centres undefined)		inconclusive [inhibitor, partial curve, poor fit]
Cc1ccc(C)c(CN2C(=O)c3ccccc3S(=O)(=O)c3ccc(C(=O)N4CCN(c5ccccc5F)CC4)cc32)c1		inconclusive [inhibitor, single point]
COc1ccc2c(c1OC)C(=O)OC2CC(=O)c1ccc(O)c(O)c1 (centres undefined)		inconclusive [inhibitor, single point]
O=C(CSc1ncn[nH]1)Nc1ccccc1Sc1ccccc1		inconclusive [inhibitor, full curve, poor fit]
O=C(O)C=C(Br)Br		inconclusive [inhibitor, partial curve, poor fit]
O=C(CSc1nc(C2CC2)nc2ccccc12)N1CCCCC1	inactive: -7.29%	
CCCS(=O)(=O)N1CCC(C(=O)N2CCCC2)CC1	inactive: -20%	
COc1ccc(-c2cc(C(=O)N3CCN(S(=O)(=O)c4ccccc4)CC3)[nH]n2)cc1	inactive: -14.9%	
O=C(Nc1ccc(F)c(Cl)c1)c1ccc2c(=O)n3c(nc2c1)CCCCC3	inactive: 1.43%	
C=CCNC(=S)N/N=C(\C)c1ccccn1	inactive: -3.03%	
CCOc1ccc(S(=O)(=O)Nc2ccccc2C(=O)NCc2ccco2)cc1		inconclusive [inhibitor, full curve]
COc1cccc(NC(=O)CN(C)C(=O)c2cc(-c3ccc(C)o3)nc3ccccc23)c1		inconclusive [inhibitor, full curve, poor fit]
CC1CN=C(NCc2ccccc2)S1 (centres undefined)		inconclusive [inhibitor, single point]
O=C(NCC(=O)N1CCN(Cc2ccccc2)CC1)c1ccc(Cl)cc1		inconclusive [inhibitor, full curve]
COC(=O)CN1C(=O)C(O)(CC(=O)c2cccc(Br)c2)c2ccccc21 (centres undefined)		inconclusive [inhibitor, single point]
Cc1ccccc1N1CCN(c2ncnc3c2cnn3Cc2ccc(Cl)cc2)CC1		inconclusive [inhibitor, partial curve]
CCOC(=O)C1CCN(C(c2cccs2)c2sc3nc(C)nn3c2O)CC1 (centres undefined)		inconclusive [inhibitor, full curve, poor fit]
CCc1ccccc1Nc1nc2ccccc2n2cnnc12	inactive: 12.7%	
NC(=S)N/N=C/c1ccc(-c2ccc([N+](=O)[O-])cc2)o1		inconclusive [inhibitor, full curve, poor fit]
CC(NC(=O)c1ccc(F)cc1)c1nc2ccccc2n1Cc1ccccc1F (centres undefined)		inconclusive [inhibitor, partial curve, poor fit]
CCn1c(=S)[nH]c2nc3c(cc2c1=O)CCCC3		inconclusive [inhibitor, full curve]

Compound	activity change, negative = inhibition	Potency
NC(=O)C1CCN(C(=O)Cn2c(-c3cccs3)cc3ccccc32)CC1	inactive: 8.59%	
CC1CCCCN1C(=O)CCc1nnc(Cc2c[nH]c3ccccc23)o1 (centres undefined)	inactive: -0.235%	
CCC(=O)NC(=S)NNC(=O)c1ccc([N+](=O)[O-])cc1	inactive: -11.6%	
CCOc1ccc(NC(=O)CN2CCN(CC(=O)Nc3ccccc3OCC)CC2)cc1	inactive: 18.3%	
FC(F)(F)c1cccc(CNc2ncccc2-c2nc3cc(Cl)ccc3o2)c1		inconclusive [inhibitor, full curve]
CCCCN(C(=O)C(C)N1C(=O)c2ccccc2C1=O)c1c(N)n(CC(C)C)c(=O)[nH]c1=O (centres undefined)		inconclusive [inhibitor, full curve, poor fit]
O=C(CCc1ccccc1)NCc1ccccn1		inconclusive [inhibitor, full curve, poor fit]
Cc1ccc2c(c1)[C@H]1[C@H](CO2)[C@H](c2ccccc2)[C@]2(C)C(=O)Nc3cc(Cl)ccc3C(=O)N12		inconclusive [inhibitor, partial curve]
COc1ccc(N(CC(=O)N/N=C/c2cccnc2)S(=O)(=O)c2ccccc2)c(OC)c1		inconclusive [inhibitor, full curve]
COc1ccc(NC(=O)C2CC(=O)N(C)C(=Nc3ccc4c(c3)OCO4)S2)cc1 (centres undefined)	inactive: -6.39%	
Cc1occc1C(=O)Nc1nnc(C(F)(F)F)s1	inactive: -5.04%	
CCOc1ccc(Nc2cc(C)nc(-n3nc(C)cc3C)n2)cc1		inconclusive [inhibitor, partial curve, poor fit]
O=C(Cn1nnc(-c2ccccc2NC(=O)c2ccccc2)n1)Nc1ccc2c(c1)OCCO2	inactive: -0.938%	
O=C(CN(Cc1ccccc1)S(=O)(=O)c1ccc(F)cc1)NCc1ccncc1		inconclusive [inhibitor, full curve, poor fit]
CCOc1ccccc1N1CCN(C(=O)NCc2ccc(Cl)cc2)CC1		inconclusive [inhibitor, full curve]
CNS(=O)(=O)c1cn(CC(=O)N2CCN(c3cc(C)ccc3C)CC2)cc1S(=O)(=O)NC	inactive: 19.3%	
C=CCN(c1ccccc1)S(=O)(=O)c1cccc(C(=O)Nc2cccc(C)n2)c1	inactive: 0%	
CC(=O)N1c2ccc(S(=O)(=O)N3CCC(C(=O)Nc4ccc(C)cn4)CC3)cc2CC1C (centres undefined)		inconclusive [inhibitor, full curve, poor fit]
Cc1cc(N/N=C/c2ccccc2Cl)nc(NCc2ccccc2)n1		inconclusive [inhibitor, partial curve]
COc1ccc(C2CC(=O)Nc3ccccc3S2(=O)=O)cc1OC (centres undefined)		inconclusive [inhibitor, full curve, poor fit]
CCCSCC(=O)Nc1ncc2c(n1)-c1ccccc1CC2		inconclusive [inhibitor, full curve, poor fit]
Cc1ccc(NC(=O)c2cc(S(=O)(=O)N3CCCCC3)c[nH]2)cc1C		inconclusive [inhibitor, full curve, poor fit]
CN(C)CC(C)(C)NS(=O)(=O)c1ccc(Cl)cc1		inconclusive [inhibitor, full curve, poor fit]
